The supplement of paper PMC8512760
This is one part of the list. Many values rest on one well or one pass, so single values are uncertain.

System: HCC-1143
Assay: cell viability relative to vehicle (% of vehicle); basal-like triple-negative breast cancer lines; higher = less cytotoxic
Settings: 10 µM; 72 h
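Further: stably firefly luciferase-GFP labeled cells in 96-well plates, viability read as luciferase photon flux after d-luciferin addition, treated wells normalized to vehicle wells, single-dose high-throughput screen.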

| Compound | cell viability |
| --- | --- |
| O=C(NCCN1CCOCC1)c1ccc(Cl)cc1 | 104 |
| CNC(=O)c1cc(Oc2ccc(NC(=O)Nc3ccc(Cl)c(C(F)(F)F)c3)cc2)ccn1 [Sorafenib] | 72.5 |
| Cc1nnc(NS(=O)(=O)c2ccc(N)cc2)s1 [Sulfamethizole] | 78.2 |
| Clc1ccc(COC(Cn2ccnc2)c2ccc(Cl)cc2Cl)c(Cl)c1.O=[N+]([O-])O (stereo not given) [Miconazole Nitrate] | 73.9 |
| CC(O)C1C(=O)N2C(C(=O)O)=C(SC3CNC(CNS(N)(=O)=O)C3)C(C)C12 (stereo not given) [Doripenem] | 77.4 |
| N#CC(c1ccc(Cl)cc1)c1c(Cl)cc(-n2ncc(=O)[nH]c2=O)cc1Cl (stereo not given) [Diclazuril] | 77.9 |
| N#CC(=C1SCC(c2ccc(Cl)cc2Cl)S1)n1ccnc1 (stereo not given) [Luliconazole] | 99.5 |
| CCCCc1nc(Cl)c(CO)n1Cc1ccc(-c2ccccc2-c2nnn[n-]2)cc1.[K+] [Losartan Potassium (DuP 753)] | 85.3 |
| Nc1ccc(C(=O)NCC(=O)[O-])cc1.[Na+] [Sodium 4-amiropparaty Hyalrate] | 75.8 |
| COc1cc2nc(N(C)CCCNC(=O)C3CCCO3)nc(N)c2cc1OC.Cl (stereo not given) [Alfuzosin HCl] | 81.8 |

System: HCC-1187
Assay: as above
Settings: 10 µM; 72 h

| Compound | cell viability |
| --- | --- |
| CN(Cc1ccc(C(C)(C)C)cc1)Cc1cccc2ccccc12.Cl [Butenafine HCl] | 93.6 |
| CCCCc1ncc(C=C(Cc2cccs2)C(=O)O)n1Cc1ccc(C(=O)O)cc1.CS(=O)(=O)O [Eprosartan Mesylate] | 126 |
| Clc1ccc(C(c2ccccc2Cl)C(Cl)Cl)cc1 (stereo not given) [Mitotane (Lsodren)] | 125 |
| COc1ccc2cc([C@H](C)C(=O)[O-])ccc2c1.[Na+] [Naproxen Sodium] | 84 |
| CCC1OC(=O)CC(O)C(C)C(OC2OC(C)C(O)C(N(C)C)C2O)C(CCN2CC(C)CC(C)C2)CC(C)C(=O)C=CC(C)=CC1COC1OC(C)C(O)C(OC)C1OC (stereo not given) [Tilmicosin] | 77.5 |
| O=c1c(-c2ccc(O)cc2)coc2cc(O)cc(O)c12 [Genistein] | 120 |
| COC(=O)C(Cc1ccccc1)NC(=O)C(N)CC(=O)O (stereo not given) [Aspartame] | 108 |
| COc1ccc(CC2c3cc(OC)c(OC)cc3CC[N+]2(C)CCC(=O)OCCCCCOC(=O)CC[N+]2(C)CCc3cc(OC)c(OC)cc3C2Cc2ccc(OC)c(OC)c2)cc1OC.O=S(=O)([O-])c1ccccc1.O=S(=O)([O-])c1ccccc1 (stereo not given) [Atracurium Besylate] | 61.7 |
| CSc1nc2cc(Oc3cccc(Cl)c3Cl)c(Cl)cc2[nH]1 [Triclabendazole] | 88.8 |
| CCCc1nc(C(C)(C)O)c(C(=O)O)n1Cc1ccc(-c2ccccc2-c2nn[nH]n2)cc1 [Olmesartan] | 126 |
| CCCCCCCCCCCCCCCCOP(=O)([O-])OCC[N+](C)(C)C [Miltefosine] | 91 |
| CC(C)(C)c1cc(NC(=O)Nc2ccc(-c3cn4c(n3)sc3cc(OCCN5CCOCC5)ccc34)cc2)no1 [Quizartinib (AC220)] | 28.2 |
| CC(C)NCC(O)COc1ccc(CCOCC2CC2)cc1.Cl (stereo not given) [Levobetaxolol HCl] | 90.5 |
| C=C1C(=CC=C2CCCC3(C)C2CCC3C(C)C=CC(C)C(C)C)CC(O)CC1O (stereo not given) [Doxercalciferol] | 186 |
| CCCC(=O)OCOC(=O)C1=C(C)NC(C)=C(C(=O)OC)C1c1cccc(Cl)c1Cl (stereo not given) [Clevidipine Butyrate] | 83.7 |
| NC(CSCCCO)C(=O)O (stereo not given) [Fudosteine] | 83.3 |
| Cc1cc(C(C)(C)C)cc(C)c1CC1=NCCN1.Cl [Xylometazoline HCl] | 124 |
| Cc1cc(=O)[nH]c(=S)[nH]1 [Methylthiouracil] | 96.5 |
| C[N+]1(C)[C@@H]2C[C@@H](OC(=O)C(O)(c3cccs3)c3cccs3)C[C@H]1[C@@H]1O[C@@H]12.[Br-] [Tiotropium Bromide] | 72.5 |
| CNC1CCC(c2ccc(Cl)c(Cl)c2)c2ccccc21.Cl (stereo not given) [Sertraline HCl] | 65.6 |
